US10381110B2, “Molecules” (University of Dundee, priority 2010, dated 2019)
Where a name gives a salt, the structure may show the parent alone. Read-outs that look alike come from different tables or passages of the source.

Experiments:
Assay in all cases: Secondary radioligand binding assay (Ki)
α1A (Alpha1A) = target: T1, α1A (Alpha1A) (Homo sapiens, UniProt P35348); settings: read-out: Alpha1A KI, Cheng-Prusoff
T1 sequence (P35348 1-466): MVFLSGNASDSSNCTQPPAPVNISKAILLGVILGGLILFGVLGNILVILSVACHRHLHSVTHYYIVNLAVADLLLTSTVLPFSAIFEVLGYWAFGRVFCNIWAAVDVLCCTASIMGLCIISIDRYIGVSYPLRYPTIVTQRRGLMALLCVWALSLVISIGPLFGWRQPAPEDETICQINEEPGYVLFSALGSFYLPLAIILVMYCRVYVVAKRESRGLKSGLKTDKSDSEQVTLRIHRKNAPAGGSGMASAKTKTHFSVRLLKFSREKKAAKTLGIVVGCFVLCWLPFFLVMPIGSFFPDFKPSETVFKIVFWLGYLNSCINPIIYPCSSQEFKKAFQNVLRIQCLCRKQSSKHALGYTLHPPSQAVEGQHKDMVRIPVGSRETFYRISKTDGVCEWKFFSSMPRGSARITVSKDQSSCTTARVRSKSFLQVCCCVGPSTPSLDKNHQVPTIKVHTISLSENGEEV

Alpha1D = target: T2, Alpha1D (Homo sapiens, UniProt P25100); settings: read-out: Alpha1D KI, Cheng-Prusoff
T2 sequence (P25100 1-572): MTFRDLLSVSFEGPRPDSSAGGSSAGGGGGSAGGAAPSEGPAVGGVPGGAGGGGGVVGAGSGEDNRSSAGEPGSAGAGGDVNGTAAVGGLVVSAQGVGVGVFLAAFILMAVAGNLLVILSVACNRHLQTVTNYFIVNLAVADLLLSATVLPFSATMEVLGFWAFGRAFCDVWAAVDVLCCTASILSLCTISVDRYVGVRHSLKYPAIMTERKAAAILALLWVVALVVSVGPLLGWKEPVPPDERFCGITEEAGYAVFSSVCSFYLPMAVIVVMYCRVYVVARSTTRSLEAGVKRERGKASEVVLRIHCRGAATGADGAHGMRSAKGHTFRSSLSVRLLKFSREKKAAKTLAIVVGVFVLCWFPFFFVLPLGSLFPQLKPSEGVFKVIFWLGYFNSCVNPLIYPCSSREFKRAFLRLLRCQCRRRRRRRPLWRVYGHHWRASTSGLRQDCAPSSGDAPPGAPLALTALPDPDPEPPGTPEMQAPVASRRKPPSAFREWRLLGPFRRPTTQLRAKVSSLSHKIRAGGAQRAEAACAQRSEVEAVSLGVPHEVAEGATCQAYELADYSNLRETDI

dopamine D4 = target: T3, dopamine D4 (Homo sapiens, UniProt P21917)
T3 sequence (P21917 1-419): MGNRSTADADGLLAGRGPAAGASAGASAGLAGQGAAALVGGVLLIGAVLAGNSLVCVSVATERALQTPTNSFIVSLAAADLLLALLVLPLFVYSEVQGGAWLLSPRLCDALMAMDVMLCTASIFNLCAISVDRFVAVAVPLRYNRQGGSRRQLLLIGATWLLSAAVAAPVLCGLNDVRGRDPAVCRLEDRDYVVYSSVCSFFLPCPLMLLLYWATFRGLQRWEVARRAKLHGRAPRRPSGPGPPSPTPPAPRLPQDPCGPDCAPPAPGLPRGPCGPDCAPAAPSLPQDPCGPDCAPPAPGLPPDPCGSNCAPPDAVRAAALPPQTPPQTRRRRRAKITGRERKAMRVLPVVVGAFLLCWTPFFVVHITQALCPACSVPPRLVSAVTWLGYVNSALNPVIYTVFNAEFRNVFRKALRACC

5HT1a = 5HT1a (Homo sapiens, UniProt P08908); settings: read-out: 5ht1a KI, Cheng-Prusoff
α1B (Alpha1B) = target: T4, α1B (Alpha1B) (Homo sapiens, UniProt P35368); settings: read-out: Alpha1B KI, Cheng-Prusoff
T4 sequence (P35368 1-520): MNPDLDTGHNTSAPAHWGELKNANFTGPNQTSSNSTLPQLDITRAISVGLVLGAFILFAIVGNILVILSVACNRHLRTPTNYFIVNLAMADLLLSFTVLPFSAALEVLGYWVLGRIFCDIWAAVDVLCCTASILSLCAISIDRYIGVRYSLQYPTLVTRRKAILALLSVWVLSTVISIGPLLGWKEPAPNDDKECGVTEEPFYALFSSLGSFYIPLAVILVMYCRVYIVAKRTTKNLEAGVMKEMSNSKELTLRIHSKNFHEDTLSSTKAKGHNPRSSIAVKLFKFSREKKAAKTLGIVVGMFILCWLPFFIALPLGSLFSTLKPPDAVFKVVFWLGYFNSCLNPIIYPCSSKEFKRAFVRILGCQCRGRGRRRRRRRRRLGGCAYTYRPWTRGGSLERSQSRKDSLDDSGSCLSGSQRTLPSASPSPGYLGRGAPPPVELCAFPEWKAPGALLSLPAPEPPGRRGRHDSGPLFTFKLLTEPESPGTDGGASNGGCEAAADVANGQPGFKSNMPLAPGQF

dopamine D2 = dopamine D2 (Homo sapiens, UniProt P14416); settings: for Ki: read-out: D2 KI, Cheng-Prusoff
dopamine D1 = dopamine D1 (Homo sapiens, UniProt P21728); settings: read-out: D1 KI, Cheng-Prusoff
Sequence of UniProt P21728 (P21728 whole entry): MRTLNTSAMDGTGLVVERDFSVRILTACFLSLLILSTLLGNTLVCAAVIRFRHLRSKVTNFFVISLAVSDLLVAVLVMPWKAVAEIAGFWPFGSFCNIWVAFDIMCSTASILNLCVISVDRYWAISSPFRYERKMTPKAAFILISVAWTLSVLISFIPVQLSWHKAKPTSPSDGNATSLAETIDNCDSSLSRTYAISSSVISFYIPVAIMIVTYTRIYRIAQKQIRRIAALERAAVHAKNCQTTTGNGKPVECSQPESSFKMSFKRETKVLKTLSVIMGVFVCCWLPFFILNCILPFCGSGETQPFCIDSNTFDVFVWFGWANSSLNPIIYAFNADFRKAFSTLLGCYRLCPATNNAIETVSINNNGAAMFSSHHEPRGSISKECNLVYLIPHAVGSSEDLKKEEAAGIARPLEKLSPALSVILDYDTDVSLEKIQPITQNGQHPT

[1] = read-out: D4 KI, secondary binding assay, Cheng-Prusoff
[2] = read-out: Experimental Receptor Binding Data-Ki D4, Table 25, GPCR panel

Row | Compound | Ki (α1A (Alpha1A)) | Ki (Alpha1D) | Ki (dopamine D4) | Ki (5HT1a) | Ki (α1B (Alpha1B)) | Ki (dopamine D2) | Ki (dopamine D4; [1]) | Ki (dopamine D4; [2]) | Ki (dopamine D1) | increase in affinity for dopamine D4 receptor over donepezil (dopamine D4; ratio of Ki values) | D2 KI (dopamine D2; Cheng-Prusoff, listed as Donepezil)
1 | COc1ccc2c(c1)C(=O)N(CCCN1CCN(c3ccccc3OC)CC1)C2 [GFR-VII-273] | 64.9 nM | 81.1 nM | 13 nM |  |  |  |  |  |  |  | 
2 | COc1ccc2c(c1)C(=O)N(CCN1CCN(c3ccccc3OC)CC1)C2 [GFR-VII-280-HCl] |  |  | 187 nM |  |  |  |  |  |  |  | 
3 | COc1ccc2c(c1)C(=O)N(CCN1CCN(c3ccccc3OC)CC1)C2 [GFR-VII-280] | 15.9 nM | 12.4 nM |  | 3.5 nM | 38.7 nM | 1650 nM | 191 nM | 191 nM |  |  | 
4 | COc1cc2c(cc1OC)C(=O)N(CCCCN1CCN(c3ccccc3OC)CC1)C2 [GFR-VII-285] | 0.9 nM | 4.4 nM |  |  | 19.3 nM | 156 nM | 436 nM | 436 nM | 531 nM |  | 
5 | COc1ccc2c(c1)CN(CCCN1CCN(c3ccccc3OC)CC1)C2=O [GFR-VII-290] | 59.9 nM | 56 nM |  | 19 nM | 608 nM | 1370 nM | 115 nM | 115 nM | 2730 nM |  | 
6 | CC1Cc2ccccc2N1C(=O)CN1CCN(Cc2ccccc2)CC1 (stereo not shown) [STT-00185638, 2-[-4-(benzyl)-piperazin-1-yl]-1-(2-methy-2,3-dihydro-indol-1-yl)-ethanone] |  |  | 9.5 nM |  |  |  |  |  |  | 65 fold | 
7 | COc1cc2c(cc1OC)C(=O)C(CC1CCN(Cc3ccccc3)CC1)C2 (stereo not shown) [donepezil, reference compound] |  |  |  |  |  |  | 614 nM | 614 nM |  |  | inactive
